# From the supplement of paper PMC8728848
# The list shows a part of the results.
# B1: DrGal3 (Danio rerio) (protein)
# chain: MDLSDALDAPPQQNNQQAGGPVWPGQPANPVWPGQPANPTWPGQPNQPAWPGQPNQQWPGQPGQPTAPGWPGPAPQTGPYGAPGQAPQVLTVPLDFPLQNGAYNKMLITINGEVKPNAKQFTVNLRRGNDIAFHINPRFSEGGKPVIVRNSMIGNNWGREERELPSFPFVPGKPFEMKILITDTEYKVAVNKSHLLEFKHRVFELNQITGLSIYNDVTLSTVNVETLQ
# Columns and labels:
# Test in all cases: glycan array binding signal (z-score within array); higher = stronger binding
# Conditions in all cases: glycan notation: IUPAC condensed, linker removed
# [1] = target: Neu5Ac(a2-3)Gal(b1-3)GlcNAc(b1-4)Gal(b1-4)Glc
# Outline: (§1)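 The Consortium for Functional Glycomics database supplied 3228 glycan arrays, of which those lacking an available protein sequence were dropped. The binding signal, a within-array Z-score, was averaged across arrays of the same protein sequence and across linkers. Negative scores can be read as non-binding.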
# [2] = target: Neu5Ac(a2-3)Gal(b1-3)GlcNAc(b1-6)GalNAc
# Outline: as §1
# [3] = target: Neu5Ac(a2-3)Gal(b1-3)GlcNAc6S
# Outline: as §1
# [4] = target: Neu5Ac(a2-3)Gal(b1-3)[Fuc(a1-4)]GlcNAc
# Outline: as §1
# [5] = target: Neu5Ac(a2-3)Gal(b1-3)[Fuc(a1-4)]GlcNAc(b1-3)Gal(b1-3)[Fuc(a1-4)]GlcNAc
# Outline: as §1
# [6] = target: Neu5Ac(a2-3)Gal(b1-3)[Fuc(a1-4)]GlcNAc(b1-3)Gal(b1-4)[Fuc(a1-3)]GlcNAc
# Outline: as §1
# [7] = target: Neu5Ac(a2-3)Gal(b1-3)[GlcNAc(b1-6)]GalNAc
# Outline: as §1
# [8] = target: Neu5Ac(a2-3)Gal(b1-3)[Neu5Ac(a2-6)]GalNAc
# Outline: as §1
# [9] = target: Neu5Ac(a2-3)Gal(b1-3)[Neu5Ac(a2-6)]GlcNAc(b1-3)[Fuc(a1-3)[Gal(b1-4)]GlcNAc(b1-6)]Gal(b1-4)Glc
# Outline: as §1
# [10] = target: Neu5Ac(a2-3)Gal(b1-3)]Neu5Ac(a2-3)Gal(b1-4)]GlcNAc
# Outline: as §1
# [11] = target: Neu5Ac(a2-3)Gal(b1-4)Glc
# Outline: as §1
# [12] = target: Neu5Ac(a2-3)Gal(b1-4)GlcNAc
# Outline: as §1
# [13] = target: Neu5Ac(a2-3)Gal(b1-4)GlcNAc(b1-2)Man
# Outline: as §1
# [14] = target: Neu5Ac(a2-3)Gal(b1-4)GlcNAc(b1-2)Man(a1-3)[GlcNAc(b1-4)][Neu5Ac(a2-3)Gal(b1-4)GlcNAc(b1-2)Man(a1-6)]Man(b1-4)GlcNAc(b1-4)GlcNAc
# Outline: as §1
# [15] = target: Neu5Ac(a2-3)Gal(b1-4)GlcNAc(b1-2)Man(a1-3)[Neu5Ac(a2-3)Gal(b1-4)GlcNAc(b1-2)Man(a1-6)]Man(b1-4)GlcNAc(b1-4)GlcNAc
# Outline: as §1
# [16] = target: Neu5Ac(a2-3)Gal(b1-4)GlcNAc(b1-2)Man(a1-3)[Neu5Ac(a2-3)Gal(b1-4)GlcNAc(b1-2)Man(a1-6)]Man(b1-4)GlcNAc(b1-4)[Fuc(a1-6)]GlcNAc
# Outline: as §1
# [17] = target: Neu5Ac(a2-3)Gal(b1-4)GlcNAc(b1-2)Man(a1-3)[Neu5Ac(a2-6)Gal(b1-4)GlcNAc(b1-2)Man(a1-6)]Man(b1-4)GlcNAc(b1-4)GlcNAc
# Outline: as §1
# [18] = target: Neu5Ac(a2-3)Gal(b1-4)GlcNAc(b1-2)[Neu5Ac(a2-3)Gal(b1-4)GlcNAc(b1-4)]Man(a1-3)[GlcNAc(b1-4)][Neu5Ac(a2-3)Gal(b1-4)GlcNAc(b1-2)[Neu5Ac(a2-3)Gal(b1-4)GlcNAc(b1-6)]Man(a1-6)]Man(b1-4)GlcNAc(b1-4)GlcNAc
# Outline: as §1
# [19] = target: Neu5Ac(a2-3)Gal(b1-4)GlcNAc(b1-2)[Neu5Ac(a2-3)Gal(b1-4)GlcNAc(b1-4)]Man(a1-3)[GlcNAc(b1-4)][Neu5Ac(a2-3)Gal(b1-4)GlcNAc(b1-4)Man(a1-6)]Man(b1-4)GlcNAc(b1-4)GlcNAc
# Outline: as §1
# [20] = target: Neu5Ac(a2-3)Gal(b1-4)GlcNAc(b1-2)[Neu5Ac(a2-3)Gal(b1-4)GlcNAc(b1-6)]Man(a1-6)[Neu5Ac(a2-3)Gal(b1-4)GlcNAc(b1-2)Man(a1-3)]Man(b1-4)GlcNAc(b1-4)GlcNAc
# Outline: as §1
# [21] = target: Neu5Ac(a2-3)Gal(b1-4)GlcNAc(b1-2)[Neu5Ac(a2-3)Gal(b1-4)GlcNAc(b1-6)]Man(a1-6)[Neu5Ac(a2-3)Gal(b1-4)GlcNAc(b1-2)Man(a1-3)][GlcNAc(b1-4)]Man(b1-4)GlcNAc(b1-4)GlcNAc
# Outline: as §1
# [22] = target: Neu5Ac(a2-3)Gal(b1-4)GlcNAc(b1-3)Gal
# Outline: as §1
# [23] = target: Neu5Ac(a2-3)Gal(b1-4)GlcNAc(b1-3)Gal(b1-3)GlcNAc
# Outline: as §1
# [24] = target: Neu5Ac(a2-3)Gal(b1-4)GlcNAc(b1-3)Gal(b1-4)GlcNAc
# Outline: as §1
# [25] = target: Neu5Ac(a2-3)Gal(b1-4)GlcNAc(b1-3)Gal(b1-4)GlcNAc(b1-2)Man(a1-3)[Neu5Ac(a2-3)Gal(b1-4)GlcNAc(b1-3)Gal(b1-4)GlcNAc(b1-2)Man(a1-6)]Man(b1-4)GlcNAc(b1-4)GlcNAc
# Outline: as §1
# [26] = target: Neu5Ac(a2-3)Gal(b1-4)GlcNAc(b1-3)Gal(b1-4)GlcNAc(b1-3)Gal(b1-4)GlcNAc
# Outline: as §1
# [27] = target: Neu5Ac(a2-3)Gal(b1-4)GlcNAc(b1-3)Gal(b1-4)GlcNAc(b1-3)Gal(b1-4)GlcNAc(b1-2)Man(a1-3)[Neu5Ac(a2-3)Gal(b1-4)GlcNAc(b1-3)Gal(b1-4)GlcNAc(b1-3)Gal(b1-4)GlcNAc(b1-2)Man(a1-6)]GalNAc
# Outline: as §1
# [28] = target: Neu5Ac(a2-3)Gal(b1-4)GlcNAc(b1-3)Gal(b1-4)GlcNAc(b1-3)GalNAc
# Outline: as §1
# [29] = target: Neu5Ac(a2-3)Gal(b1-4)GlcNAc(b1-3)Gal(b1-4)GlcNAc(b1-3)[Neu5Ac(a2-3)Gal(b1-4)GlcNAc(b1-3)Gal(b1-4)GlcNAc(b1-6)]GalNAc
# Outline: as §1
# [30] = target: Neu5Ac(a2-3)Gal(b1-4)GlcNAc(b1-3)Gal(b1-4)GlcNAc(b1-6)[Gal(b1-3)]GalNAc
# Outline: as §1
# [31] = target: Neu5Ac(a2-3)Gal(b1-4)GlcNAc(b1-3)Gal(b1-4)[Fuc(a1-3)]GlcNAc
# Outline: as §1
binder,measurement,setting,value
B1,glycan array binding signal (z-score),[1],-0.296
same,glycan array binding signal (z-score),[2],-0.284
same,glycan array binding signal (z-score),[3],-0.172
same,glycan array binding signal (z-score),[4],-0.238
same,glycan array binding signal (z-score),[5],-0.249
same,glycan array binding signal (z-score),[6],-0.268
same,glycan array binding signal (z-score),[7],-0.195
same,glycan array binding signal (z-score),[8],-0.239
same,glycan array binding signal (z-score),[9],-0.238
same,glycan array binding signal (z-score),[10],-0.161
same,glycan array binding signal (z-score),[11],-0.166
same,glycan array binding signal (z-score),[12],-0.251
same,glycan array binding signal (z-score),[13],-0.201
same,glycan array binding signal (z-score),[14],-0.266
same,glycan array binding signal (z-score),[15],-0.226
same,glycan array binding signal (z-score),[16],-0.153
same,glycan array binding signal (z-score),[17],-0.19
same,glycan array binding signal (z-score),[18],-0.261
same,glycan array binding signal (z-score),[19],-0.181
same,glycan array binding signal (z-score),[20],-0.318
same,glycan array binding signal (z-score),[21],-0.271
same,glycan array binding signal (z-score),[22],-0.246
same,glycan array binding signal (z-score),[23],-0.063
same,glycan array binding signal (z-score),[24],0.528
same,glycan array binding signal (z-score),[25],0.33
same,glycan array binding signal (z-score),[26],2.06
same,glycan array binding signal (z-score),[27],1.02
same,glycan array binding signal (z-score),[28],0.009
same,glycan array binding signal (z-score),[29],0.088
same,glycan array binding signal (z-score),[30],0.078
same,glycan array binding signal (z-score),[31],-0.238
